Out of some 310,000 compounds screened, about 2,200 (0.71%) showed an effect of 50% or more. The effect is printed as a negative number. This is one part of the list.
Target: human ether-à-go-go-related gene (hERG) potassium channel (human, UniProt Q12809)
Assay: primary screen, population patch clamp on CHO cells stably expressing hERG

human ether-à-go-go-related gene (hERG) potassium channel, sequence (Q12809 whole entry, looked up): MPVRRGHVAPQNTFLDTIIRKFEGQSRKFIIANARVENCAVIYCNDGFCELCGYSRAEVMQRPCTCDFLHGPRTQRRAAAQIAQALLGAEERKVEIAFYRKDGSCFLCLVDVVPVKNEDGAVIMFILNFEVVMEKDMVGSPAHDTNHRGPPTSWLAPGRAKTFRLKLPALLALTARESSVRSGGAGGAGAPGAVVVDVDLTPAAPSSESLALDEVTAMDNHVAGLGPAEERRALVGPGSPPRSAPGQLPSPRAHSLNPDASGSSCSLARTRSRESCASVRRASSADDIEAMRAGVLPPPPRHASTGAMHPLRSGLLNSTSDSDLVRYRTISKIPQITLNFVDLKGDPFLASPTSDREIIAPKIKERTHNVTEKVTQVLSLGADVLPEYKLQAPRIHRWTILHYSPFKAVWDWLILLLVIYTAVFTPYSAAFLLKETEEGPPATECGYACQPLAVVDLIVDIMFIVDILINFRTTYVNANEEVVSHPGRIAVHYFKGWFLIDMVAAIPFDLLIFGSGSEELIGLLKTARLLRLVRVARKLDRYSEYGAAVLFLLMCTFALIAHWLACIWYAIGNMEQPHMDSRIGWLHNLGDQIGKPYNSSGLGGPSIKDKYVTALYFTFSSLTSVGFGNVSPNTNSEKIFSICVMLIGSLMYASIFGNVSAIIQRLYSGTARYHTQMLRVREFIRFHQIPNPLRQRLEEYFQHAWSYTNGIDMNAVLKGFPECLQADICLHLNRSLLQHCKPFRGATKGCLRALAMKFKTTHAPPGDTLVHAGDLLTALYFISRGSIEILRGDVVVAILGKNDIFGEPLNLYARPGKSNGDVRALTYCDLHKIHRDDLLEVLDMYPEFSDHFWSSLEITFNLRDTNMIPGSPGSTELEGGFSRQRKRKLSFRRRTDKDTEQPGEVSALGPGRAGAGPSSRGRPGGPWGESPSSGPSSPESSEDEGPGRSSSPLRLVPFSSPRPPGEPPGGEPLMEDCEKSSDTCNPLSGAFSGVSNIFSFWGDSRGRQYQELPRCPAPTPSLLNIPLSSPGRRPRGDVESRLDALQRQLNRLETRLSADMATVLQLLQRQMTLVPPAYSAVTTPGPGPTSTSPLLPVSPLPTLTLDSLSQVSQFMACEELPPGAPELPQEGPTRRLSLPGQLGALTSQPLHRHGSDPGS

| SMILES | hERG current change (%, negative = inhibition) at 1uM |
| --- | --- |
| CC(C)CNC(=O)c1ccc2c(c1)C(=O)N(C1CCCCC1)C2=O | 8.43% |
| O=C(CSc1ccccn1)N1CCc2ccccc21 | 6.34% |
| COc1ccc(NC(=S)N2CCN(c3ccccc3)CC2)c(OC)c1 | 16.5% |
| CC(=O)c1cn(Cc2ccc(F)cc2)c2ccccc12 | -2.75% |
| COc1ccccc1Nc1ncnc2nc[nH]c12 | 11.2% |
| CC(C)NC(=O)c1onc(CSc2ccc(F)c(F)c2)c1C(=O)NC(C)C | -1.15% |
| Cc1nnc2sc(SCC(=O)N3CCCCC3)nn2c1=O | 11.4% |
| CCN(CC)CCCNC(=O)C1c2ccccc2Oc2ccccc21 | 9.17% |
| CSCCNCc1c(C(=O)N2CCOCC2)nc2c(C)cccn12 | 13.7% |
| CC1(C)CC(=O)/C(=N/Nc2ccc(Cl)cc2)CO1 | 8.09% |
| CC12CN3CC(C)(CN(C1)C3c1ccc(Br)cc1O)C2 (stereo not drawn) | 1.02% |
| CN(CC(=O)Nc1ccccc1Cl)C(=O)C1CCN(C(=O)c2ccc(Cl)cc2)CC1 | -3.89% |
| COc1ccc(S(=O)(=O)N2c3cc(C)ccc3OCC2C(C)(C)C)cc1 (stereo not drawn) | 6.16% |
| Cc1cccc(NC(=O)C2CCCN(C(=O)NCc3ccccc3)C2)c1C (stereo not drawn) | 12.3% |
| Cc1ccsc1/C=N/NC(=O)c1ccccn1 | 5.01% |
| COc1ccccc1C(c1nnnn1C(C)C)N1CCN(C(=O)c2ccco2)CC1 (stereo not drawn) | 11.8% |
| O=C(CSC(=S)N1CCN(c2ccccc2)CC1)Nc1nc(-c2ccccc2)c(-c2ccccc2)o1 | 1.95% |
| Cc1nc2cc(NC(=O)c3ccc([N+](=O)[O-])s3)ccc2s1 | -2.3% |
| O=S(=O)(c1cnccc1N1CCN(/N=C/c2ccc(Br)cc2)CC1)N1CCCCC1 | 13.1% |
| O=C(CN1CCOCC1)Nc1nc(-c2ccccc2Cl)cs1 | -7.94% |
| O=C(NCCCN1CCCC1=O)c1cn(-c2ccccc2)nc1-c1ccccc1 | 1.26% |
| CCN(CC)Cc1c(O)ccc2c(=O)c(-c3ccc(Cl)cc3)coc12 | -10.4% |
| CC(C)CN(CC(C)C)S(=O)(=O)N1CCC(C(=O)NCc2cccs2)CC1 | 1.45% |

| SMILES | hERG current change (%, negative = inhibition) at 1uM |
| --- | --- |
| Cc1ccc(C2CC(=O)Nc3sc(C(N)=O)c(N)c32)cc1 (stereo not drawn) | 2.74% |
| CSc1cccc(NC(=O)N2CCN(C)CC2)c1 | -0.755% |
| O=C(NCc1ccco1)c1ccc(Cl)c(S(=O)(=O)N2CCOCC2)c1 | 9.1% |
| Cc1cccc(C)c1NC(=S)N1CCC(c2ccccc2)C1 (stereo not drawn) | 3.18% |
| CC(=O)NCC(=O)NC1(C(=O)NC2CCCC2)CCCCC1 | 10.7% |
| COc1cccc(C(=O)COc2ccc(NC(=O)c3cccs3)cc2)c1 | 13.4% |
| COc1cc2cc(CCCOC(=O)c3ccco3)oc(=O)c2cc1OC | -2.15% |
| Cc1occc1C(=O)NCc1cccc(CNC(=O)c2ccoc2C)c1 | 5.08% |
| Nc1n[nH]c(C2CC2)c1N=Nc1ccc(Cl)cc1 | 8.81% |
| N#Cc1cc(C(=O)c2cc(Br)ccc2O)cn(Cc2ccccc2)c1=O | 11% |
| O=C(c1ccc(-n2c(SCc3cccc(F)c3)nc3ccccc3c2=O)cc1)N1CCOCC1 | -1.5% |
| COc1ccc(N2CCN(C(CNC(=O)c3cccc(Cl)c3)c3cccnc3)CC2)cc1 (stereo not drawn) | -4.06% |
| O=C(Nc1cccc(C(F)(F)F)c1)c1ccc2nc(-c3ccco3)c(-c3ccco3)nc2c1 | 14.1% |
| COc1ccc(-n2nc(C(=O)NCC(=O)NC(C)C)c3ccccc3c2=O)c(OC)c1 | 15.3% |
| CC(=O)Nc1ccc(Oc2ncccn2)c(Cl)c1 | -4.47% |
| CC(C)(C)c1[nH]nc2c1C(Cc1ccccc1)C(C#N)=C(N)O2 (stereo not drawn) | 8.7% |
| CC(C)[C@H](NC(=O)c1ccc(Cl)c([N+](=O)[O-])c1)C(=O)NCc1ccc(Cl)cc1Cl | 17.5% |
| COc1ccc(CNC(=O)C/C(C)=N/NC(=O)Cc2ccc(OC)c(OC)c2)cc1 | 10.4% |
| CCOC(=O)Cc1nn2c(=O)cc(C)nc2s1 | 9.41% |
| COc1ccc(-c2nnc(OCc3nc4ccccc4n3C)c3ccccc23)cc1 | -12.9% |
| COCCN(C(=O)COC(=O)c1cc2ccccc2cc1OC)c1c(N)n(Cc2ccccc2)c(=O)[nH]c1=O | 4.64% |
| CC(NCc1nc2ccccc2n1C)C12CC3CC(CC(C3)C1)C2 (stereo not drawn) | 16.3% |

From publication PMC4336329 (PLoS ONE, 2015)
